According to article PMC5717197 (2017):

Biological target: T1, p31comet (Homo sapiens, UniProt Q15013)
T1 chain: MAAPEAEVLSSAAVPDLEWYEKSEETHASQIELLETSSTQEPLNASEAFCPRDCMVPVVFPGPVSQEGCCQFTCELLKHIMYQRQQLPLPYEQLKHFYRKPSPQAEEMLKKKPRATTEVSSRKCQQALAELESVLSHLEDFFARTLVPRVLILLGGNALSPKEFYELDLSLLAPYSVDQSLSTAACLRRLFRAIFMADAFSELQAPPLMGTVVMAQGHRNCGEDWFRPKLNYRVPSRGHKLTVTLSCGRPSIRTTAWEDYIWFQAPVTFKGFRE

Kd: 240 nM
B1: Mad2 (protein)
chain: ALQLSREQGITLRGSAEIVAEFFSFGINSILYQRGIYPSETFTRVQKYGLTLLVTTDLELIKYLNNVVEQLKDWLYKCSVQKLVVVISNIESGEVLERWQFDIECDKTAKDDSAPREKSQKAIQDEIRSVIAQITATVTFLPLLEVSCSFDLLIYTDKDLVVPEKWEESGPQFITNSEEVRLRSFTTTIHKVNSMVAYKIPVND
